Test results as given in a collection of fitness landscapes (doi:10.1126/science.1257360).
The list shows a part of the results.

B1: PhoQ; a variant is named by its letters at X, in order, P23837 (parent)
chain: MKKLLRLFFPLSLRVRFLLATAAVVLVLSLAYGMVALIGYSVSFDKTTFRLLRGESNLFYTLAKWENNKLHVELPENIDKQSPTMTLIYDENGQLLWAQRDVPWLMKMIQPDWLKSNGFHEIEADVNDTSLLLSGDHSIQQQLQEVREDDDDAEMTHSVAVNVYPATSRMPKLTIVVVDTIPVELKSSYMVWSWFIYVLSANLLLVIPLLWVAAWWSLRPIEALAKEVRELEEHNRELLNPATTRELTSLVRNLNRLLKSERERYDKYRTTLTDLTHSLKTPLXXLQXXLRSLRSEKMSVSDAEPVMLEQISRISQQIGYYLHRASMRGGTLLSRELHPVAPLLDNLTSALNKVYQRKGVNISLDISPEISFVGEQNDFVEVMGNVLDNACKYCLEFVEISARQTDEHLYIVVEDDGPGIPLSKREVIFDRGQRVDTLRPGQGVGLAVAREITEQYEGKIVAGESMLGGARMEVIFGRQHSAPKDE

Variants of: B1
Test: enrichment ratio after two sorts for PhoP signalling (ratio (wild type AVST 3.29)); higher = more functional
Settings: with PhoP (E. coli)

DCLV was tested. Which enrichment ratio did it give?
Its enrichment ratio is no more than 0.25.

HHCE was tested. Which enrichment ratio did it give?
The enrichment ratio was no more than 0.25.

How did the enrichment ratio turn out when IELA was run?
The enrichment ratio was no more than 0.25.

YNFF was tested. Which enrichment ratio did it give?
Its enrichment ratio is no more than 0.25.

With RKCR as the variant, how does the enrichment ratio read?
Its enrichment ratio is no more than 0.25.

With HWFK as the variant, how does the enrichment ratio read?
The enrichment ratio was no more than 0.25.

With WLAG as the variant, how does the enrichment ratio read?
Its enrichment ratio is no more than 0.25.

For MTIE, which enrichment ratio is on record?
Its enrichment ratio is no more than 0.25.

With EPSG as the variant, how does the enrichment ratio read?
The enrichment ratio was no more than 0.25.

Which enrichment ratio does the source give for WYGD here?
The enrichment ratio was no more than 0.25.

How did the enrichment ratio turn out when IGCH was run?
The enrichment ratio was 0.982.

WVAP was tested. Which enrichment ratio did it give?
The enrichment ratio was no more than 0.25.

Which enrichment ratio does the source give for RMLS here?
Its enrichment ratio is no more than 0.25.

For YWCN, which enrichment ratio is on record?
Its enrichment ratio is no more than 0.25.

With FHVH as the variant, how does the enrichment ratio read?
The enrichment ratio was no more than 0.25.

How did the enrichment ratio turn out when KDCL was run?
The enrichment ratio was no more than 0.25.

Which enrichment ratio does the source give for KNEK here?
Its enrichment ratio is no more than 0.25.

For LWWR, which enrichment ratio is on record?
Its enrichment ratio is no more than 0.25.

GLKT was tested. Which enrichment ratio did it give?
The enrichment ratio was no more than 0.25.

Which enrichment ratio does the source give for YTCK here?
The enrichment ratio was no more than 0.25.

With IGFQ as the variant, how does the enrichment ratio read?
The enrichment ratio was no more than 0.25.

How did the enrichment ratio turn out when QSFP was run?
The enrichment ratio was no more than 0.25.

With DRAC as the variant, how does the enrichment ratio read?
Its enrichment ratio is no more than 0.25.

For LCPS, which enrichment ratio is on record?
The enrichment ratio was no more than 0.25.

Which enrichment ratio does the source give for MRYD here?
The enrichment ratio was no more than 0.25.

How did the enrichment ratio turn out when FEST was run?
Its enrichment ratio is no more than 0.25.

For ATCP, which enrichment ratio is on record?
Its enrichment ratio is no more than 0.25.

How did the enrichment ratio turn out when NFLM was run?
Its enrichment ratio is no more than 0.25.

Which enrichment ratio does the source give for WFPD here?
The enrichment ratio was no more than 0.25.

For HRKF, which enrichment ratio is on record?
The enrichment ratio was no more than 0.25.

For QPKG, which enrichment ratio is on record?
The enrichment ratio was no more than 0.25.

Which enrichment ratio does the source give for AIHC here?
Its enrichment ratio is 10.3.

Which enrichment ratio does the source give for LKVC here?
The enrichment ratio was no more than 0.25.

For ECKH, which enrichment ratio is on record?
Its enrichment ratio is no more than 0.25.

For RHWK, which enrichment ratio is on record?
The enrichment ratio was no more than 0.25.

How did the enrichment ratio turn out when FKDS was run?
Its enrichment ratio is no more than 0.25.

KLCK was tested. Which enrichment ratio did it give?
Its enrichment ratio is no more than 0.25.

For GEMW, which enrichment ratio is on record?
Its enrichment ratio is no more than 0.25.

PQSS was tested. Which enrichment ratio did it give?
Its enrichment ratio is no more than 0.25.

How did the enrichment ratio turn out when MRKK was run?
Its enrichment ratio is no more than 0.25.

How did the enrichment ratio turn out when VHKG was run?
Its enrichment ratio is no more than 0.25.

How did the enrichment ratio turn out when YYKF was run?
Its enrichment ratio is no more than 0.25.

For PHEW, which enrichment ratio is on record?
Its enrichment ratio is no more than 0.25.

Which enrichment ratio does the source give for SNPK here?
The enrichment ratio was no more than 0.25.

HADR was tested. Which enrichment ratio did it give?
Its enrichment ratio is no more than 0.25.

How did the enrichment ratio turn out when RCCG was run?
The enrichment ratio was no more than 0.25.

Which enrichment ratio does the source give for TLMK here?
Its enrichment ratio is no more than 0.25.

How did the enrichment ratio turn out when FVHS was run?
Its enrichment ratio is no more than 0.25.

How did the enrichment ratio turn out when GVGI was run?
Its enrichment ratio is no more than 0.25.

With ATKD as the variant, how does the enrichment ratio read?
The enrichment ratio was no more than 0.25.

How did the enrichment ratio turn out when STNE was run?
The enrichment ratio was no more than 0.25.

How did the enrichment ratio turn out when PNLF was run?
The enrichment ratio was no more than 0.25.

IAAQ was tested. Which enrichment ratio did it give?
The enrichment ratio was no more than 0.25.

With YMTP as the variant, how does the enrichment ratio read?
Its enrichment ratio is no more than 0.25.

With DDIK as the variant, how does the enrichment ratio read?
The enrichment ratio was no more than 0.25.

ERSI was tested. Which enrichment ratio did it give?
The enrichment ratio was no more than 0.25.

EFRI was tested. Which enrichment ratio did it give?
The enrichment ratio was no more than 0.25.

For QLHP, which enrichment ratio is on record?
The enrichment ratio was no more than 0.25.

How did the enrichment ratio turn out when RHYT was run?
Its enrichment ratio is no more than 0.25.

For PQPN, which enrichment ratio is on record?
The enrichment ratio was no more than 0.25.

Which enrichment ratio does the source give for FQLR here?
The enrichment ratio was no more than 0.25.

RGQY was tested. Which enrichment ratio did it give?
The enrichment ratio was no more than 0.25.

With MWGI as the variant, how does the enrichment ratio read?
Its enrichment ratio is no more than 0.25.

With AAVI as the variant, how does the enrichment ratio read?
Its enrichment ratio is 2.14.

How did the enrichment ratio turn out when PDFD was run?
Its enrichment ratio is no more than 0.25.

IMND was tested. Which enrichment ratio did it give?
Its enrichment ratio is no more than 0.25.

Which enrichment ratio does the source give for YVTM here?
Its enrichment ratio is no more than 0.25.

Which enrichment ratio does the source give for QRLV here?
Its enrichment ratio is no more than 0.25.

For PMMV, which enrichment ratio is on record?
The enrichment ratio was no more than 0.25.

How did the enrichment ratio turn out when IPNK was run?
The enrichment ratio was no more than 0.25.

How did the enrichment ratio turn out when YFSS was run?
Its enrichment ratio is no more than 0.25.

How did the enrichment ratio turn out when HIAM was run?
Its enrichment ratio is no more than 0.25.

KDCA was tested. Which enrichment ratio did it give?
Its enrichment ratio is no more than 0.25.

ARPC was tested. Which enrichment ratio did it give?
The enrichment ratio was no more than 0.25.

How did the enrichment ratio turn out when IFER was run?
The enrichment ratio was no more than 0.25.

How did the enrichment ratio turn out when ICQW was run?
Its enrichment ratio is no more than 0.25.

With MKAW as the variant, how does the enrichment ratio read?
Its enrichment ratio is no more than 0.25.

For HKFT, which enrichment ratio is on record?
Its enrichment ratio is no more than 0.25.

GYKM was tested. Which enrichment ratio did it give?
The enrichment ratio was no more than 0.25.

Which enrichment ratio does the source give for VNFN here?
Its enrichment ratio is no more than 0.25.

How did the enrichment ratio turn out when TILA was run?
Its enrichment ratio is 4.43.

For AAHW, which enrichment ratio is on record?
Its enrichment ratio is no more than 0.25.

How did the enrichment ratio turn out when SPEQ was run?
Its enrichment ratio is no more than 0.25.

How did the enrichment ratio turn out when YMQR was run?
The enrichment ratio was no more than 0.25.
